Reference: the antibiotic and cytotoxicity screens of Wong et al. (2023)
Some of the results follow.

What follows are compounds tested on HepG2 (assay: cytotoxicity call (relative viability < 0.9)). Details: 10 µM.

Structure (SMILES) | cytotoxicity call
Cc1noc(C)c1S(=O)(=O)Nc1ccc2c(c1)C(=O)N([C@@H](C)CO)C[C@H](C)[C@@H](CN(C)C(=O)Nc1ccc(F)cc1)OCCCC[C@H](C)O2 | inactive
C=CCNS(=O)(=O)c1cccc2nonc12 | inactive
CCN1[C@@H]2O[C@@H]3O[C@H]4[C@H](O[C@H]3O[C@@H]2N(CC)S1(=O)=O)N(CC)S(=O)(=O)N4CC | inactive
CN(CC(=O)O)C(=N)N | inactive
Cc1noc(C)c1NC(=O)N(C)C[C@@H]1Oc2ccc(NS(=O)(=O)c3c(C)noc3C)cc2CC(=O)N([C@H](C)CO)C[C@@H]1C | inactive
C[C@H](CO)N1C[C@H](C)[C@H](CN(C)S(C)(=O)=O)Oc2ccc(NC(=O)CCC(F)(F)F)cc2CC1=O | inactive
C[C@H](CO)N1C[C@H](C)[C@H](CN(C)C(=O)CCC(F)(F)F)OCCCC[C@H](C)Oc2ccc(NS(=O)(=O)c3ccc(F)cc3)cc2C1=O | inactive
C[C@@H]1CN([C@@H](C)CO)C(=O)CCCn2nncc2CO[C@@H]1CN(C)C(=O)Nc1ccc2c(c1)OCO2 | inactive
CC1(C)OC2CC3C4CCC5=CC(=O)C=CC5(C)C4C(O)CC3(C)C2(C(=O)CO)O1 (configuration not stated) | inactive
C[C@H]1CCCCO[C@H](CN(C)C(=O)Nc2cccc3ccccc23)[C@@H](C)CN([C@@H](C)CO)C(=O)c2cc(NS(=O)(=O)c3ccc(F)cc3)ccc2O1 | active
N[C@@H]1[C@H]2CN(c3nc4c(cc3F)c(=O)c(C(=O)O)cn4-c3ccc(F)cc3F)C[C@@H]12 | inactive
COc1ccc2c3c([nH]c2c1)[C@@H](CO)N(CC1CCOCC1)C[C@]13CCN(CC1)C(=O)C1CCOCC1 | inactive
